{"source": "paper PMC12136788", "binders": {"B1": {"name": "chr2:26245550:26245551:+_ENSMUSG00000026926_ENSMUST00000076431|mus_mus|FALSE|FALSE (ssRNA)", "RNA": "GGGAGUUCUACAGUCCGACGAUCAUUGUCCAGAGUGGUAACUUUGGUUUCAAACUUUUCCUGUCCAUCAACUGUUGCAAAAAUAGGCUUGGGUACUCCAGGCAAGGGAGAAGAGAGGGGGAUGUUGGGGUAGGUGGCACCACUCAACAGAGGAUUGAGCAUCA"}, "B2": {"name": "chr13:81889239:81889240:+_ENSMUSG00000051098_ENSMUST00000057598|mus_mus|motif|central (ssRNA)", "RNA": "GGGAGUUCUACAGUCCGACGAUCCAUGGCAAAAGUAGACACUUUGUGGCAUAUCCCAGCUUUUGAAAUAUAGUUAGAAGCGGAGCGAAACAGCCUUUCGGCACCAAAGGUAUUGAAGUGCCCAGGAAGCACCUUCUCCACAAGCAACAGAGGAUUGAGCAUCA"}, "B3": {"name": "chr4:134026413:134026414:+_ENSMUSG00000028832_ENSMUST00000130253|mus_mus|FALSE|FALSE (ssRNA)", "RNA": "GGGAGUUCUACAGUCCGACGAUCUACAAAUCAAAAGAAAUCAAGUAACAUUUUUUUUUUAAAAAGCUUAACAUUUUGGACUAACAAAUACCAUCUUGAGGAAUUAGUACUUGACAGUCACUCCCUAGGAAACAAAGAAUGGUGCAACAGAGGAUUGAGCAUCA"}, "B4": {"name": "chr14:76904430:76904431:+_ENSMUSG00000022010_ENSMUST00000022587|mus_mus|mus_mus_mus_hu_True|1_108 (ssRNA)", "RNA": "GGGAGUUCUACAGUCCGACGAUCUGCUGGAAAAAAAACCCUCGUGGAAAAAAAGAGGGAACACCAGCAGCCUUGUAUAAGCUAGAUAAAAUCUUCUGGCUUUCCGCAGCCCAGGGAGAAACAGAAAACGGCAGCCCUCGAGUGCAACAGAGGAUUGAGCAUCA"}, "B5": {"name": "chr22:32879901:32879902:+_ENSG00000100225_ENST00000397426|hu_mus|hu_hu_hu_mus_False|28_58 (ssRNA)", "RNA": "GGGAGUUCUACAGUCCGACGAUCCUCUUCCAUACUCAUGGCAUCCUGAAUUGACUCAGCUUCAACAUUUUGACUAGGCCCUAACAUACUGUCAUCAGUCCAGGCAUCAGACUGGGCGGCCUGUCCUUGGGAUGAAUCAGUCCCCAACAGAGGAUUGAGCAUCA"}, "B6": {"name": "chr5:128448638:128448639:+_ENSG00000066583_ENST00000173527|hu_mus|hu_hu_hu_mus_False|58_78 (ssRNA)", "RNA": "GGGAGUUCUACAGUCCGACGAUCGGCACUCGCCUUAAUUAGGUUCUGAAUUUCCUUGAAUUUUGGAUGGUCUUUGUCAGCUACCAGCUGUAGGAGGACAGCCUCACUAGUGGUCACGAUGAUCCCAGUGCGGGCAAGACGCUCCAACAGAGGAUUGAGCAUCA"}, "B7": {"name": "chr1:219384972:219384973:+_ENSG00000143353_ENST00000366928|hu_hu|motif|central (ssRNA)", "RNA": "GGGAGUUCUACAGUCCGACGAUCCCAUAACUUCAAUAUGUCUAACUCAGUUUUGCUUAGCUCAUGGUAAACAUUUGGAAAACGGUGAAACUUCGUGGUCACUCCUAGAGAUUUUAACAUUGAGUUUGUCUCUUCUGCCCAAGACAACAGAGGAUUGAGCAUCA"}, "B8": {"name": "chr16:32231720:32231721:-_ENSMUSG00000035764_ENSMUST00000042732|mus_hu|motif|central (ssRNA)", "RNA": "GGGAGUUCUACAGUCCGACGAUCACAAUCUUAACUCCCAAGGAGCAAUCCAAGAAUCCCGGCCAGCUGCUGGGUGUCCCGGAUCAGAUUUAAAACAAAACAUACAUACAGCAAGAACUCAGAAGUACAAAGAUUUCGCUCGCUCAACAGAGGAUUGAGCAUCA"}, "B9": {"name": "chr21:32491406:32491407:-_ENSG00000156299_ENST00000286827|hu_mus|motif|central (ssRNA)", "RNA": "GGGAGUUCUACAGUCCGACGAUCAACCCUUCUUAAGGAAUGGACAUUGUGAAAUGGGGAGGAGGAGGGCGGAACAAAAAGCGGUAAACCUUUUUUUUUUUAAAAAUGAAAGUGCUAGAAUGGGUUUUGUUCUUCCUGUCUGGACAACAGAGGAUUGAGCAUCA"}, "B10": {"name": "chr11:29608612:29608613:+_ENSMUSG00000020458_ENSMUST00000102843|mus_mus|motif|central (ssRNA)", "RNA": "GGGAGUUCUACAGUCCGACGAUCUUGAGAUUCCAAAGCAGAAACAUUUGGAAGCAAUAAGGGCACCUUAGAUACACUGGACCGGCUUUUGGAGAAUUCAUCUGAGACAUGUGCUUCAUCUUUAGGAUAUGUAUUCUUGAAAGACAACAGAGGAUUGAGCAUCA"}, "B11": {"name": "chr9:111175927:111175928:+_ENSMUSG00000046785_ENSMUST00000060711|mus_mus|motif|central (ssRNA)", "RNA": "GGGAGUUCUACAGUCCGACGAUCUCUUACAGAAAUAGGCGCAUAUUCCGGUUUAAAGCUAAAUGGAUUUGAGAAAAGUUCGGAGUCCUUUUUAAUGAACCUGAGGUCCUUAAAAUGUCUCUCAAAAUCUUUCUGUAGGCGGGACAACAGAGGAUUGAGCAUCA"}, "B12": {"name": "420215_422326_3354_CDS_ENSG00000073614_ENST00000399788|human|control|control (ssRNA)", "RNA": "GGGAGUUCUACAGUCCGACGAUCGUAAUUGCUGCCACUCUGAAUAGCUUCCACUUUAGCGGUCCAUUCUCGAGCCUUUUGUAAGGCUUCUUUCAAGGACAACACAUUGGGUAGAAAGGCUGGAAUGUUCUUGGCUUCAUUCACCAACAGAGGAUUGAGCAUCA"}, "B13": {"name": "chr2:216981417:216981418:+_ENSG00000079246_ENST00000392132|hu_hu|hu_hu_hu_mus_True|8_8 (ssRNA)", "RNA": "GGGAGUUCUACAGUCCGACGAUCCUGAUACUGGUCCUUGCCAGCAAGGGCAUUAUCAGUGCCAUCUGUGCCAUAGAGGACUAACGCAAUCUCAUCUUUGCUCUCCGAAAAUACCUGUCGUUGGACAAACAUGGUUAUCACUUUCAACAGAGGAUUGAGCAUCA"}, "B14": {"name": "chr10:70021928:70021929:-_ENSMUSG00000037747_ENSMUST00000162251|mus_mus|FALSE|FALSE (ssRNA)", "RNA": "GGGAGUUCUACAGUCCGACGAUCAUGCAUGCUUCAGUGGGGACAUCUGAUGGCAGAUGGACAACAGAGGGUAAUGCUCCUAUGGGAAGACAGGGUGUGUGGGGCGGGGAAGGGGCGAAAGUGGUGUUAGCGUCCGACACUGAUCAACAGAGGAUUGAGCAUCA"}, "B15": {"name": "chr21:34823002:34823003:-_ENSG00000142188_ENST00000542230|hu_hu|FALSE|FALSE (ssRNA)", "RNA": "GGGAGUUCUACAGUCCGACGAUCGUAUUAUAUACAUAUUAACAGUCUAUGCAAUGAAAAAUAAAGAAAUUUCAUAAAACUAUUUCAAAACUCAGAACAUAAAAAUGUAAAGAAACAAAACAUUUAAUGUACAAUCUACUCCAUCAACAGAGGAUUGAGCAUCA"}, "B16": {"name": "chr3:150289932:150289933:+_ENSG00000144895_ENST00000460851|hu_hu|hu_hu_hu_mus_False|28_98 (ssRNA)", "RNA": "GGGAGUUCUACAGUCCGACGAUCCUUGUAGUUUUUAACAUCCCACACUUCCAUUUGUCCUCGAAGAUUUCCAAAUCCAGCCAGCACUAAUAUAUGUCCAUGAGGGCUAUAGUAGGCUGCGUUGCGAGGACCAGUCCCAAAGUCCAACAGAGGAUUGAGCAUCA"}, "B17": {"name": "chrX:98862621:98862622:+_ENSMUSG00000034160_ENSMUST00000044475|mus_hu|mus_mus_mus_hu_False|38_38 (ssRNA)", "RNA": "GGGAGUUCUACAGUCCGACGAUCCUGCAUCUCCUUUAGAGUGUUUCCCAUAUUAGAGUAGGCAUCAGCAAAGGUAGGACUGAUUCGAAUAGCCUCCUUAUAGUGCAUCAGAGCUUCCUGCAGUUUUCCCUGCUGCUGCAGUACCAACAGAGGAUUGAGCAUCA"}, "B18": {"name": "chr10:84478880:84478881:+_ENSMUSG00000035620_ENSMUST00000095385|mus_mus|FALSE|FALSE (ssRNA)", "RNA": "GGGAGUUCUACAGUCCGACGAUCUUUCUUUGUUUUUAAAUAAAUAAAGUUACCAUUAAACUGAUGACAUAUGGUAGAAAGGUAGAACACACACACAAAUACACACAGAGACCCCAGUUUAAAACAUGUGACAUACGAAUGACCCAACAGAGGAUUGAGCAUCA"}, "B19": {"name": "chr5:64892317:64892318:-_ENSG00000113595_ENST00000231524|hu_hu|FALSE|FALSE (ssRNA)", "RNA": "GGGAGUUCUACAGUCCGACGAUCAGCUUGAGUAUUGAGGUAAUAAUGUUUCCACAAUGGUCUUAAUUUGUGUUUUCCACCUACAUCCCAAAUAGUGAAUUUUAGAUUUUUAUAUUCUACAGUUUCCACGUUAAAACCAAUUGUCAACAGAGGAUUGAGCAUCA"}, "B20": {"name": "chr19:16212804:16212805:+_ENSG00000167460_ENST00000300933|hu_mus|hu_hu_hu_mus_False|28_58 (ssRNA)", "RNA": "GGGAGUUCUACAGUCCGACGAUCAACAAUUCUGGAGUGAAGGAAAGAUGUAACAUGGAACAGCAUUAAAGCUCAGUAUUACUAUAUAUGGGCAACAAUGAUCACCCCCCAAGCAUUGCUUGGAAUGCUUAAAGACAAUCUGUUCAACAGAGGAUUGAGCAUCA"}, "B21": {"name": "45823290_45823410_1853_3pUTR_ENSMUSG00000035551_ENSMUST00000044297|mouse|control|control (ssRNA)", "RNA": "GGGAGUUCUACAGUCCGACGAUCGAAACCCUGUCUCAAAAAACAAAAGCAAAAACAAAACCAAACCUAAAAGCGGGGAGAGGGCAGGAACCUGCUUUUCAGAAAGCUGAUAUUCUCCUGUUUAACUUUCCCCAUUAAGGCAGGCAACAGAGGAUUGAGCAUCA"}, "B22": {"name": "chr1:50642785:50642786:+_ENSG00000162374_ENST00000371827|hu_mus|motif|central (ssRNA)", "RNA": "GGGAGUUCUACAGUCCGACGAUCAGUGUUGAUGGCUUUCUCUGCAUCCUUUGGAUCAAUAUAGUUAACAAAUCCAUACCCGGAACUCUGUCCUGUGAUUUUGUCUCUCACGAGUUUGCAGGAUUCUAUUUCACCAAUGCUCCCCAACAGAGGAUUGAGCAUCA"}}, "note": "The list shows a part of the results.", "data": [{"biological_target": "T1, UNK ZnF1-3 (human, UniProt Q9C0B0 31-174)", "T1 sequence": "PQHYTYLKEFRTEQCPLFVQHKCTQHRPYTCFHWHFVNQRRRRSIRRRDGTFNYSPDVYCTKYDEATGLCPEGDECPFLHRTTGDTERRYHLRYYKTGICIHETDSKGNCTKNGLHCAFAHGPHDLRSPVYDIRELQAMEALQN", "test": "nsRBNS (natural sequence RNA bind-n-seq); RBNS binding buffer (assumed for nsRBNS): 25 mM Tris pH 7.5, 150 mM KCl, 3 mM MgCl2, 0.01% Triton X-100, 500 ug/ml BSA, 20 U/ml SUPERase-In, 4 C; UNK is unkempt and MSI1 is Musashi-1; names of the RNAs are library labels; protein concentration not given here; high values mean tight binding", "units": {"binding signal": "enrichment R"}, "values": [{"binder": "B1", "binding signal": 1.33}, {"binder": "B2", "binding signal": 1.04}, {"binder": "B3", "binding signal": 1.4}, {"binder": "B4", "binding signal": 1.49}, {"binder": "B5", "binding signal": 1.24}, {"binder": "B6", "binding signal": 0.873}, {"binder": "B7", "binding signal": 0.982}, {"binder": "B8", "binding signal": 1.05}, {"binder": "B9", "binding signal": 2.3}, {"binder": "B10", "binding signal": 1.22}, {"binder": "B11", "binding signal": 1.15}, {"binder": "B12", "binding signal": 0.563}, {"binder": "B13", "binding signal": 0.606}, {"binder": "B14", "binding signal": 1.97}, {"binder": "B15", "binding signal": 0.702}, {"binder": "B16", "binding signal": 0.961}, {"binder": "B17", "binding signal": 1.07}, {"binder": "B18", "binding signal": 1.83}, {"binder": "B19", "binding signal": 1.01}, {"binder": "B20", "binding signal": 1.09}, {"binder": "B21", "binding signal": 0.633}, {"binder": "B22", "binding signal": 0.536}]}]}
